# In publication PMC4336329 (PLoS ONE, 2015):
# In all, about 310,000 compounds went through this assay and about 14,000 (4.5%) showed an effect of 50% or more. Effects have a minus sign here. The list shows a part of the results.
# Target: human ether-à-go-go-related gene (hERG) potassium channel (human, UniProt Q12809)
# Assay: primary screen, population patch clamp on CHO cells stably expressing hERG
# 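Further: peak tail current of the secondary pulse compared with the same well before compound.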
# human ether-à-go-go-related gene (hERG) potassium channel, sequence (Q12809 whole entry, looked up): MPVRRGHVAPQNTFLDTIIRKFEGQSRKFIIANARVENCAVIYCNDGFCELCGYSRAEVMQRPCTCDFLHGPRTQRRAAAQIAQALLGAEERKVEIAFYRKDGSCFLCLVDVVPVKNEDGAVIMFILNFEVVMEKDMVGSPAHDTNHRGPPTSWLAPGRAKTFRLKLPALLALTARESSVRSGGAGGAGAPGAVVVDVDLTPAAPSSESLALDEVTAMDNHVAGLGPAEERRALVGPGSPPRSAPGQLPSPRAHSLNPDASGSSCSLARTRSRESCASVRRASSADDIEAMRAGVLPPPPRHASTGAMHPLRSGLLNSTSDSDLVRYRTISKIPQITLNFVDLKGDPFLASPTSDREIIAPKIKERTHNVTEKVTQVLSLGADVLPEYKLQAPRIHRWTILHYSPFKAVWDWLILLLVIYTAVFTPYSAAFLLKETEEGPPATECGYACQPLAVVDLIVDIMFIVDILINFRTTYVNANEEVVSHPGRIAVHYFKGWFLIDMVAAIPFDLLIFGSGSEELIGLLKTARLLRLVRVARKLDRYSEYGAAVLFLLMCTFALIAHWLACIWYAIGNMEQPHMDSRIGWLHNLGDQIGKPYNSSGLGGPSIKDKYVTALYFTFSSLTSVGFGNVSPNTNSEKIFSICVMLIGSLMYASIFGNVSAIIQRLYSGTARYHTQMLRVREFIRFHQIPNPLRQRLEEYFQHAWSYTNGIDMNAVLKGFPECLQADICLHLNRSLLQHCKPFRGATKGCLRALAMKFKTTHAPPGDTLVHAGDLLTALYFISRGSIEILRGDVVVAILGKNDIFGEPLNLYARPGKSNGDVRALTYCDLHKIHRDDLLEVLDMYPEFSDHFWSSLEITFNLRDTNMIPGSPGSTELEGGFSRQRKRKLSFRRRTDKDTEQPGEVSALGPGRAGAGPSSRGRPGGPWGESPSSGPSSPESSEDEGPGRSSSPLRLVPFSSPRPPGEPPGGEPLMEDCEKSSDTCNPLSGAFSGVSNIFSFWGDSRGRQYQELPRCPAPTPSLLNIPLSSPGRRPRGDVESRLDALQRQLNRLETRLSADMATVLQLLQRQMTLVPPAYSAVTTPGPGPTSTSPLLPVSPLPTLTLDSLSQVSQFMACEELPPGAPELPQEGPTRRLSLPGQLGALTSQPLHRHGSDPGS
row,SMILES,"hERG current change (%, negative = inhibition) at 10uM [%]"
1,CC(C)Sc1nc2c([nH]c3ccccc32)c(=O)n1C,17
2,Cc1ccc(S(=O)(=O)Oc2ccccc2N2C(=O)C3C4CCC(C4)C3C2=O)cc1 (stereo not drawn),-17.5
3,COc1ccc(N2CCN(c3nc(Cl)nc(N4CCOCC4)n3)CC2)cc1,0.926
4,CCn1c(C(O)c2cccc(OC)c2OC)nc2ccccc21 (stereo not drawn),-12.2
5,NC(=O)c1ccc(NC(=O)C2COc3ccccc3O2)cc1 (stereo not drawn),-0.781
6,Cc1nn(-c2ccccc2)c(C)c1C(=O)NCCc1ccccc1,1.03
7,COc1cc(NC(=O)c2ccco2)c(OC)cc1NC(=O)Nc1ccc(Cl)cc1,-14.8
8,O=C(CNC(=O)c1ccco1)OCc1ccc(Cl)cc1,3.86
9,C=CCn1c(-c2c[nH]c3ccccc23)n[nH]c1=S,15.1
10,CN(c1ccc(C(=O)NCCSCc2ccco2)cc1)S(C)(=O)=O,-3.16
11,O=C(NNC(=O)c1cc(-c2ccncc2)nc2ccccc12)c1ccccc1O,-6.5
12,CCc1ccc(-c2nc(SCC(=O)NC3CC3)n[nH]2)cc1,7.48
13,Cc1ccc(CN2CCN(Cc3ccco3)CC2)cc1.O=C(O)C(=O)O,-15.5
14,CC(C)c1nc(C(N)=O)c2[nH]c(=O)n(-c3ccc(F)cc3)c2n1,0.843
15,COc1ccc(-c2csc(NC(C)c3nc4cc(Cl)c(N5CCCCC5)cc4n3CCCO)n2)cc1 (stereo not drawn),30.5
16,CCOc1ccc(NC(=O)COc2ccc3c(c2)OCO3)cc1,1.04
17,C=CCNS(=O)(=O)c1sccc1/C=N/O,-3.2
18,CCOC(=O)CN1C(=O)C2(OCCCO2)c2ccccc21,-7.58
19,COc1ccc(Br)cc1S(=O)(=O)NNC(=O)c1c(C)nc2ccccn12,1.39

row,SMILES,"hERG current change (%, negative = inhibition) at 10uM [%]"
1,CCCC[n+]1c(C)sc2ccc(C)cc21.[Cl-],21
2,COc1cc(OC)cc(-c2c(C#Cc3ccsc3)c3cc(Br)ccc3n2C)c1,4.51
3,CC(C)CC1c2[nH]c3ccccc3c2CCN1C(=O)c1cnccn1 (stereo not drawn),3.61
4,Cc1ccc(C2=Nc3ccccc3N=C(C(Cl)Cl)C2)cc1,-12.6
5,O=C(NNC(=S)NC(=O)c1ccccc1Cl)c1cccc([N+](=O)[O-])c1,13.9
6,O=C(CSc1nnnn1-c1ccc(F)cc1F)Nc1ccccc1F,6.25
7,O=C(CC12CC3CC(CC(C3)C1)C2)NC1CC1,23.2
8,O=[N+]([O-])c1ccccc1S(=O)(=O)NCCSc1ccccc1,4.87
9,O=C(NC(Cc1ccccc1)C(=O)O)c1ccc(S(=O)(=O)N2CCCC2)cc1 (stereo not drawn),5.45
10,CCNC(=O)CC1SC(=Nc2ccccc2C)N(C)C1=O (stereo not drawn),-7.92
11,O=C(CSc1cn(CC(=O)N2CCCCCC2)c2ccccc12)NCC1CCCO1 (stereo not drawn),-18.8
12,COc1ccc([C@@H]2[C@@H]3C(=O)N(C(C)(C)C)C(=O)[C@@H]3[C@]3(CC(C)C)C(=O)N(c4cccc(Br)c4)C(=O)N23)cc1,21.3
13,COCCCn1c(SCC(=O)Nc2ccc(C)cc2)nc2ccccc2c1=O,-2.1
14,CC(Cc1c[nH]c2ccccc12)C(=O)O (stereo not drawn),5.9
15,CCCc1cc(=O)oc2cc(C)cc(OC(C)C(=O)NCCCn3ccnc3)c12 (stereo not drawn),-65.3
16,Cc1cc(C(=O)NC2CCCN(Cc3ccc(Cl)cc3)C2)no1 (stereo not drawn),-34.6
17,CSc1ccc(CCNC(=O)C2CCCN(S(=O)(=O)N3CCOCC3)C2)cc1 (stereo not drawn),-0.853
18,COc1cc(CC(=O)OCC(=O)c2ccc3c(c2)OCCO3)cc(OC)c1OC,-58.6
19,CCCCCC(=O)Nc1c2c(nc3ccccc13)CCC2,-45.7

row,SMILES,"hERG current change (%, negative = inhibition) at 10uM [%]"
1,CC12CCC(C(=O)N3CCCCC3)(CC1=O)C2(C)C (stereo not drawn),17.1
2,COc1ccc(C(=O)NCCOc2cccc(Oc3ccccc3)c2)cc1OC,-4.91
3,CC(=O)N1CC(C)Sc2ccc(S(=O)(=O)NCCc3cccc(C)c3)cc21 (stereo not drawn),0.141
4,O=S(=O)(c1ccc(OCC(O)CN2CCN(c3ccccc3)CC2)cc1)N1CCOCC1 (stereo not drawn),0.147
5,O=C(NC(=S)Nc1ccccn1)c1ccc(-c2ccccc2)cc1,15.3
6,COc1ccc(-n2nc(C(=O)NCC(=O)N3CCN(C)CC3)c3ccccc3c2=O)cc1OC,19
7,CCOC(=O)c1c(NC(=O)c2nn(C)cc2[N+](=O)[O-])sc(C)c1C,16.5
8,Cc1cc(C(=O)Nc2ccon2)ccc1[N+](=O)[O-],3.75
9,Cc1cc(C(=O)COC(=O)c2nc3nccc(C)n3n2)c(C)n1CC1CCCO1 (stereo not drawn),23.4
10,O=c1nccc(N/N=C/c2cccc(O)c2)[nH]1,28
11,CC(=O)NC(CC(=O)OCC(=O)N1c2ccccc2NC(=O)C1(C)C)c1ccccc1 (stereo not drawn),0.694
12,CC1CCCN(CC(O)COc2ccc(-c3ccccc3)cc2)C1 (stereo not drawn),-73.4
13,C/C(=N\NC(=O)c1n[nH]c2c1CCC2)c1cccs1,12.4
14,Cc1cccc(C(=O)Nc2ccc3c(c2)CC2(C(=O)N(C)C(=O)N(C)C2=O)C2CCCN32)c1 (stereo not drawn),4.06
15,CCCC/C(C)=N/NC(=O)C(=O)NCCc1ccccc1,-0.335
16,CCCc1c(C(=O)OCC)[nH]c2c1C(=O)CCC2,-5.23
17,CCOC(=O)c1cc2oc(C(c3nnnn3C3CCCCC3)N3CCOCC3)cc2[nH]1 (stereo not drawn),-37.5
18,CC(C)(C)CNC(=O)c1ccc2c(c1)S(=O)(=O)c1cc(Cl)ccc1C2=O,3.17
19,Cc1ccc(-c2nc(=S)c3c(n2Cc2cccnc2)CC(C)(C)OC3)cc1,4.89
